# Test results published in the supplement of paper PMC8728848.
# The list shows a part of the results.
# B1: LTL (Lotus tetragonolobus), P19664 (protein)
# chain: VSFNYTEFKDDGSLILQGDAKIWTDGRLAMPTDPLVNNPKTTRSAGRALYATPVPIWDSATGNVASFVTSFNFLFVIRELKYTPTDGLVFFLAPVGTEIPSGSTGGFLGIFDGSNGFNQFVAVEFDSYHNIWDPKSLRSSHVGIDVNSIMSLKAVNWNRVSGSLEKATIIYDSQTNILSVVMTSQNGQITTIYGTIDLKTVLPEKVSVGFSATTGNPEREKHDIYSWSFTSTLKEPEEQA
# Columns and labels:
# Assay in all cases: glycan array binding signal (z-score within array); higher = stronger binding
# Conditions in all cases: glycan notation: IUPAC condensed, linker removed
# [1] = target: Gal(b1-4)GlcNAc(b1-6)Gal(b1-4)GlcNAc
# Procedure, shortened: (§1)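 From the Consortium for Functional Glycomics database, 3228 arrays were curated, keeping only those whose protein sequence was available. Binding is given as a within-array Z-score averaged across arrays sharing a protein sequence and across linkers. Negative Z-scores can be read as non-binding.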
# [2] = target: Gal(b1-4)GlcNAc(b1-6)Gal(b1-4)GlcNAc(b1-6)GalNAc
# Procedure, shortened: as §1
# [3] = target: Gal(b1-4)GlcNAc(b1-6)GalNAc
# Procedure, shortened: as §1
# [4] = target: Gal(b1-4)GlcNAc(b1-6)[Gal(b1-3)]GalNAc
# Procedure, shortened: as §1
# [5] = target: Gal(b1-4)GlcNAc(b1-6)[Gal(b1-3)]GlcNAc
# Procedure, shortened: as §1
# [6] = target: Gal(b1-4)GlcNAc(b1-6)[Gal(b1-4)GlcNAc(b1-3)]GalNAc
# Procedure, shortened: as §1
# [7] = target: Gal(b1-4)GlcNAc6P
# Procedure, shortened: as §1
# [8] = target: Gal(b1-6)Gal
# Procedure, shortened: as §1
# [9] = target: Gal3S(b1-3)GalNAc
# Procedure, shortened: as §1
# [10] = target: Gal3S(b1-3)GlcNAc
# Procedure, shortened: as §1
# [11] = target: Gal3S(b1-3)[Fuc(a1-4)]GlcNAc
# Procedure, shortened: as §1
# [12] = target: Gal3S(b1-4)Glc
# Procedure, shortened: as §1
# [13] = target: Gal3S(b1-4)Glc6S
# Procedure, shortened: as §1
# [14] = target: Gal3S(b1-4)GlcNAc
# Procedure, shortened: as §1
# [15] = target: Gal3S(b1-4)GlcNAc6S
# Procedure, shortened: as §1
# [16] = target: Gal3S(b1-4)[Fuc(a1-3)]Glc6S
# Procedure, shortened: as §1
# [17] = target: Gal3S(b1-4)[Fuc(a1-3)]GlcNAc
# Procedure, shortened: as §1
# [18] = target: Gal3S(b1-4)[Fuc(a1-3)]GlcNAc6S
# Procedure, shortened: as §1
# [19] = target: Gal3S4S(b1-4)GlcNAc
# Procedure, shortened: as §1
# [20] = target: Gal3S6S(b1-4)GlcNAc
# Procedure, shortened: as §1
# [21] = target: Gal3S6S(b1-4)GlcNAc6S
# Procedure, shortened: as §1
# [22] = target: Gal4S(b1-4)GlcNAc
# Procedure, shortened: as §1
# [23] = target: Gal4S6S(b1-4)GlcNAc
# Procedure, shortened: as §1
# [24] = target: Gal6P(b1-4)GlcNAc
# Procedure, shortened: as §1
# [25] = target: Gal6S(b1-3)GlcNAc
# Procedure, shortened: as §1
# [26] = target: Gal6S(b1-3)GlcNAc6S
# Procedure, shortened: as §1
# [27] = target: Gal6S(b1-4)Glc
# Procedure, shortened: as §1
# [28] = target: Gal6S(b1-4)Glc6S
# Procedure, shortened: as §1
# [29] = target: Gal6S(b1-4)GlcNAc
# Procedure, shortened: as §1
# [30] = target: Gal6S(b1-4)GlcNAc6S
# Procedure, shortened: as §1
# [31] = target: GalNAc(a1-3)Gal
# Procedure, shortened: as §1
# [32] = target: GalNAc(a1-3)GalNAc
# Procedure, shortened: as §1
# [33] = target: GalNAc(a1-3)GalNAc(a1-3)Gal(a1-4)Gal(b1-4)GlcNAc
# Procedure, shortened: as §1
# [34] = target: GalNAc(a1-3)GalNAc(b1-3)Gal(a1-4)Gal(b1-4)Glc
# Procedure, shortened: as §1
# [35] = target: GalNAc(b1-3)Gal
# Procedure, shortened: as §1
# [36] = target: GalNAc(b1-3)Gal(a1-4)Gal(b1-4)GlcNAc
# Procedure, shortened: as §1
# [37] = target: GalNAc(b1-3)Gal(a1-4)Gal(b1-4)GlcNAc(b1-3)Gal(b1-4)Glc
# Procedure, shortened: as §1
# [38] = target: GalNAc(b1-3)Gal(a1-6)Gal(b1-4)Glc
# Procedure, shortened: as §1
# [39] = target: GalNAc(b1-3)GalNAc
# Procedure, shortened: as §1
# [40] = target: GalNAc(b1-3)GlcNAc
# Procedure, shortened: as §1
# [41] = target: GalNAc(b1-4)Gal(b1-4)Glc
# Procedure, shortened: as §1
# [42] = target: GalNAc(b1-4)GlcNAc
# Procedure, shortened: as §1
# [43] = target: GalNAc(b1-4)GlcNAc(b1-2)Man
# Procedure, shortened: as §1
# [44] = target: GalNAc(b1-4)GlcNAc(b1-2)Man(a1-3)[GalNAc(b1-4)GlcNAc(b1-2)Man(a1-6)]Man(b1-4)GlcNAc(b1-4)GlcNAc
# Procedure, shortened: as §1
# [45] = target: GalNAc(b1-4)GlcNAc(b1-3)GalNAc(b1-4)GlcNAc
# Procedure, shortened: as §1
# [46] = target: GalNAc(b1-4)GlcNAc6S
# Procedure, shortened: as §1
# [47] = target: GalNAc(b1-6)GalNAc
# Procedure, shortened: as §1
# [48] = target: GalNAc3S(b1-4)GlcNAc
# Procedure, shortened: as §1
# [49] = target: GalNAc3S(b1-4)GlcNAc3S
# Procedure, shortened: as §1
# [50] = target: GalNAc3S(b1-4)[Fuc(a1-3)]GlcNAc
# Procedure, shortened: as §1
# [51] = target: GalNAc4S6S(b1-4)GlcNAc
# Procedure, shortened: as §1
# [52] = target: GalNAc6S(b1-4)GlcNAc
# Procedure, shortened: as §1
# [53] = target: Glc(a1-4)Glc
# Procedure, shortened: as §1
# [54] = target: Glc(a1-4)Glc(a1-4)Glc(a1-4)Glc
# Procedure, shortened: as §1
# [55] = target: Glc(a1-6)Glc(a1-6)Glc
# Procedure, shortened: as §1
# [56] = target: Glc(a1-6)Glc(a1-6)Glc(a1-6)Glc
# Procedure, shortened: as §1
# [57] = target: Glc(b1-4)Glc
# Procedure, shortened: as §1
# [58] = target: Glc(b1-6)Glc
# Procedure, shortened: as §1
# [59] = target: GlcA(b1-3)Gal
# Procedure, shortened: as §1
# [60] = target: GlcA(b1-3)GlcNAc
# Procedure, shortened: as §1
# [61] = target: GlcA(b1-6)Gal
# Procedure, shortened: as §1
# [62] = target: GlcA3S(b1-3)Gal(b1-4)GlcNAc(b1-2)Man
# Procedure, shortened: as §1
# [63] = target: GlcA3S(b1-3)Gal(b1-4)GlcNAc(b1-3)Gal(b1-4)Glc
# Procedure, shortened: as §1
# [64] = target: GlcNAc(a1-3)Gal(b1-4)GlcNAc
# Procedure, shortened: as §1
# [65] = target: GlcNAc(a1-4)Gal(b1-3)GlcNAc
# Procedure, shortened: as §1
# [66] = target: GlcNAc(a1-4)Gal(b1-4)GalNAc
# Procedure, shortened: as §1
# [67] = target: GlcNAc(a1-4)Gal(b1-4)GlcNAc
# Procedure, shortened: as §1
# [68] = target: GlcNAc(a1-4)Gal(b1-4)GlcNAc(b1-3)Gal(b1-4)Glc
# Procedure, shortened: as §1
# [69] = target: GlcNAc(a1-4)Gal(b1-4)GlcNAc(b1-3)Gal(b1-4)GlcNAc
# Procedure, shortened: as §1
# [70] = target: GlcNAc(a1-4)Gal(b1-4)GlcNAc(b1-3)Gal(b1-4)GlcNAc(b1-3)Gal(b1-4)GlcNAc
# Procedure, shortened: as §1
# [71] = target: GlcNAc(a1-4)Gal(b1-4)GlcNAc(b1-3)Gal(b1-4)[Fuc(a1-3)]GlcNAc(b1-3)Gal(b1-4)[Fuc(a1-3)]GlcNAc
# Procedure, shortened: as §1
# [72] = target: GlcNAc(a1-6)Gal(b1-4)GlcNAc
# Procedure, shortened: as §1
# [73] = target: GlcNAc(b1-2)Gal(b1-3)GalNAc
# Procedure, shortened: as §1
# [74] = target: GlcNAc(b1-2)Gal(b1-3)GlcNAc
# Procedure, shortened: as §1
# [75] = target: GlcNAc(b1-2)Man(a1-3)[GlcNAc(b1-2)Man(a1-6)]Man(b1-4)GlcNAc(b1-4)GlcNAc
# Procedure, shortened: as §1
binder,measurement,setting,value
B1,glycan array binding signal (z-score),[1],-0.037
same,glycan array binding signal (z-score),[2],-0.316
same,glycan array binding signal (z-score),[3],-0.113
same,glycan array binding signal (z-score),[4],0.031
same,glycan array binding signal (z-score),[5],-0.544
same,glycan array binding signal (z-score),[6],-0.202
same,glycan array binding signal (z-score),[7],0.005
same,glycan array binding signal (z-score),[8],-0.216
same,glycan array binding signal (z-score),[9],-0.003
same,glycan array binding signal (z-score),[10],-0.263
same,glycan array binding signal (z-score),[11],-0.057
same,glycan array binding signal (z-score),[12],-0.155
same,glycan array binding signal (z-score),[13],0.003
same,glycan array binding signal (z-score),[14],-0.248
same,glycan array binding signal (z-score),[15],0.673
same,glycan array binding signal (z-score),[16],0.78
same,glycan array binding signal (z-score),[17],-0.09
same,glycan array binding signal (z-score),[18],-0.287
same,glycan array binding signal (z-score),[19],-0.298
same,glycan array binding signal (z-score),[20],0.068
same,glycan array binding signal (z-score),[21],-0.16
same,glycan array binding signal (z-score),[22],-0.271
same,glycan array binding signal (z-score),[23],-0.151
same,glycan array binding signal (z-score),[24],-0.53
same,glycan array binding signal (z-score),[25],-0.381
same,glycan array binding signal (z-score),[26],-0.294
same,glycan array binding signal (z-score),[27],-0.131
same,glycan array binding signal (z-score),[28],-0.051
same,glycan array binding signal (z-score),[29],-0.022
same,glycan array binding signal (z-score),[30],-0.195
same,glycan array binding signal (z-score),[31],-0.206
same,glycan array binding signal (z-score),[32],-0.238
same,glycan array binding signal (z-score),[33],-0.224
same,glycan array binding signal (z-score),[34],-0.274
same,glycan array binding signal (z-score),[35],-0.283
same,glycan array binding signal (z-score),[36],-0.186
same,glycan array binding signal (z-score),[37],-0.168
same,glycan array binding signal (z-score),[38],-0.228
same,glycan array binding signal (z-score),[39],-0.117
same,glycan array binding signal (z-score),[40],-0.05
same,glycan array binding signal (z-score),[41],-0.273
same,glycan array binding signal (z-score),[42],-0.221
same,glycan array binding signal (z-score),[43],-0.392
same,glycan array binding signal (z-score),[44],1.48
same,glycan array binding signal (z-score),[45],-0.116
same,glycan array binding signal (z-score),[46],-0.34
same,glycan array binding signal (z-score),[47],-0.28
same,glycan array binding signal (z-score),[48],-0.329
same,glycan array binding signal (z-score),[49],-0.329
same,glycan array binding signal (z-score),[50],-0.138
same,glycan array binding signal (z-score),[51],-0.294
same,glycan array binding signal (z-score),[52],-0.348
same,glycan array binding signal (z-score),[53],-0.24
same,glycan array binding signal (z-score),[54],-0.177
same,glycan array binding signal (z-score),[55],-0.181
same,glycan array binding signal (z-score),[56],0.076
same,glycan array binding signal (z-score),[57],-0.263
same,glycan array binding signal (z-score),[58],-0.189
same,glycan array binding signal (z-score),[59],-0.018
same,glycan array binding signal (z-score),[60],-0.17
same,glycan array binding signal (z-score),[61],-0.25
same,glycan array binding signal (z-score),[62],0.005
same,glycan array binding signal (z-score),[63],0.102
same,glycan array binding signal (z-score),[64],-0.256
same,glycan array binding signal (z-score),[65],-0.263
same,glycan array binding signal (z-score),[66],0.03
same,glycan array binding signal (z-score),[67],-0.071
same,glycan array binding signal (z-score),[68],0.089
same,glycan array binding signal (z-score),[69],-0.153
same,glycan array binding signal (z-score),[70],-0.229
same,glycan array binding signal (z-score),[71],-0.006
same,glycan array binding signal (z-score),[72],-0.381
same,glycan array binding signal (z-score),[73],-0.188
same,glycan array binding signal (z-score),[74],-0.533
same,glycan array binding signal (z-score),[75],-0.3
